What all share (assay): Primary Screen for Target Class Profiling of Small Molecule Inhibitors of Methyltransferases
Assay [1] has as its target Glycine N-methyltransferase (Homo sapiens) (UniProt Q14749). The conditions noted are these: purified enzyme, MTase-Glo SAH luminescence; measured here: GNMT inhibition; at 40 µM; stronger effect = lower value. The method, boiled down: (§1)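 Each enzyme was reacted with SAM and its substrate, with compounds tested once at 40 uM; SAH formed was read by MTase-Glo luminescence.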
The target in assay [2] is Guanidinoacetate N-methyltransferase (Homo sapiens) (UniProt Q14353). To be noted: purified enzyme, MTase-Glo SAH luminescence; measured here: GAMT inhibition; at 40 µM; stronger effect = lower value. The method, boiled down: as §1
The target of assay [3] is Histamine N-methyltransferase (Homo sapiens) (UniProt P50135). To be noted: purified enzyme, MTase-Glo SAH luminescence; measured here: HNMT inhibition; at 40 µM; stronger effect = lower value. The method, boiled down: as §1
Assay [4] concerns the target Nicotinamide N-methyltransferase (Homo sapiens) (UniProt P40261). To be noted: purified enzyme, MTase-Glo SAH luminescence; measured here: NNMT inhibition; at 40 µM; stronger effect = lower value. The procedure, abridged:
as §1

For assay [5], the target named is Phenylethanolamine N-methyltransferase (Homo sapiens) (UniProt P11086). The conditions noted are these: purified enzyme, MTase-Glo SAH luminescence; measured here: PNMT inhibition; at 40 µM; stronger effect = lower value. The procedure, abridged:
as §1

The other results are listed elsewhere or left out. These are further read-outs of the screen, such as a control signal, another cell line or another target. No call is given for them.
% is set by controls: 0 for no effect and ±100 for the full control effect.

On to `O=C(O)[C@H]1C[C@H](C(=O)NCc2ccncc2)CN(C(=O)C2CCCC2)C1`, for which the activity change, negative = inhibition in assay [1] is -5.4%; in assay [2], 0.153%; in assay [3] it was -1.52%; in assay [4], -4.18%; in assay [5], -2.24%.
In the same order, the values of `O=S(=O)(c1ccc(Cl)cc1)c1nnn2c1nc(NCc1ccccc1)c1ccccc12` are -1.26%, 1.84%, 6.71%, 10.1% and 1.35%.
In the same order, the values of `CCCn1c(=O)c2ccccc2n2c(=O)n(Cc3ccc(C)cc3)nc12` are 3.87%, 0%, 11.3%, -8.51% and 6.79%.
For `CCCn1c(=O)c2ccccc2n2c(SCC(=O)Nc3cccc(F)c3)nnc12` the same measures were -5.43%, 0.98%, -2.02%, -8.5% and -2.16%.
In the case of `COc1cccc(-c2nnc3n(Cc4ccc(C)cc4)c(=O)c4ccccc4n23)c1O`, the activity change, negative = inhibition is -17.9% in assay [1]; -2.64% in assay [2]; -5.08% in assay [3]; -9.03% in assay [4]; -8.04% in assay [5].
For `CCOC(=O)c1cc2n(n1)CC(C)(C(=O)NC1CCCCC1)N(c1ccc(CC)cc1)C2=O` (stereo not given) the same measures were 0.097%, 2.79%, -9.78%, 2.59% and 0.383%.
For `COc1ccccc1CN1C(=O)c2ccc(-c3ccccc3)n2CC1(C)C(=O)NC1CCCC1` (stereo not given) the same measures were 2.52%, 3.99%, 6.44%, -0.623% and 2.35%.
In the same order, the values of `S=C(Nc1ccccc1)Nc1nccs1` are -19.9%, 11.3%, 7.45%, -3.63% and 4.03%.
Turning to `CCCn1c(=O)c2cc(F)ccc2n2c(SCC(=O)NC3CCCCC3)nnc12`, the activity change, negative = inhibition is 4.14% in assay [1]; 0% in assay [2]; 8.13% in assay [3]; 5.76% in assay [4]; 5.79% in assay [5].
For `COc1ccc(CN2C(=O)O[C@@H]3CN(c4nc(C)cc(C)n4)C[C@@H]32)cc1OC` the same measures were -4.03%, -7.75%, -1.72%, -8.83% and -9.17%.
For the compound `CC1(C(=O)NC2CCCCC2)Cn2c(cc3sccc32)C(=O)N1Cc1cccc(F)c1` (stereo not given), the activity change, negative = inhibition in assay [1] was 4.04%; in assay [2], 0.685%; in assay [3], 6.49%; in assay [4], -4.09%; in assay [5] it was 2.69%.
For `COCCOC1CCOC2(CCN(C(=O)c3cnccn3)CC2)C1` (stereo not given) the same measures were -1.27%, -0.563%, 1.41%, -0.598% and -2.04%.
For `COCC(=O)N[C@H]1C[C@H]2C(=O)NC[C@@H](CCC(=O)N3CCN(c4ccccc4)CC3)N2C1` the same measures were -5.92%, -3.35%, -3.89%, -5.42% and -5.94%.
For `c1cc(-c2noc([C@@H]3CCCN3Cc3ncc[nH]3)n2)cc(N2CCCC2)n1` the same measures were -8.31%, -6.51%, -12.1%, -14.5% and -6.25%.
On to `COCCOc1cc2nc[nH]c(=O)c2cc1OCCOC`, for which the activity change, negative = inhibition turned out to be 2.25% in assay [1]; 15.5% in assay [2]; 6.52% in assay [3]; 0.343% in assay [4]; 7.88% in assay [5].
For `Cc1noc(C)c1CN1CCC2(CC1)C(C(=O)O)CC(=O)N2C` (stereo not given) the same measures were -4.84%, -2.45%, -1.04%, -8.23% and 10.1%.
For `CCC(C)NC(=O)c1ccc2c(=O)n(C(C)C)c3nn(CC(=O)N(C)c4ccccc4)c(=O)n3c2c1` (stereo not given) the same measures were 0.262%, 4.87%, -2.1%, -0.771% and 2.33%.
For `Cc1c(C(=O)O)ccc2c1N[C@@H](c1cccc(C(F)(F)F)c1)[C@H]1CC=C[C@@H]21` the same measures were -35.7%, -7.24%, -12.1%, -9.38% and -18.9%.
Regarding `CC(C)=CCC/C(C)=C/CCC1(C)Oc2c(c(O)cc3c2CN(C(CCC(=O)O)C(=O)O)C3=O)CC1O` (stereo not given), the activity change, negative = inhibition in assay [1] is -0.244%; in assay [2] it was 1.42%; in assay [3] it was 7.31%; in assay [4], -12.7%; in assay [5], -2.62%.
For `CCCNC(=O)C1N(c2ccc(OC)cc2)C(=O)C12CCCCC2` (stereo not given) the same measures were 0.805%, 1.03%, 0.836%, -3.2% and 3.49%.
In the same order, the values of `O=C(CCc1nnc2n(Cc3ccccc3)c(=O)c3ccccc3n12)N1CCN(c2ncccn2)CC1` are -13.1%, 3.57%, -2.87%, -6.25% and -5.22%.
In the same order, the values of `O=C(CC(c1ccccc1)c1ccccc1)N1CCN(C(c2ccccc2)c2ccccc2)CC1` are 1.9%, -30.6%, -4.86%, -30.9% and -20.7%.
On to `CC(C)OCCCn1c(=O)c2ccccc2n2c(SCC(=O)Nc3ccc(C(C)C)cc3)nnc12`, for which the activity change, negative = inhibition in assay [1] was -0.236%; in assay [2], 0%; in assay [3], 7.39%; in assay [4], -10.1%; in assay [5], 2.94%.
For `CN(C)C[C@@H]1CN(C)C[C@H]1NC(=O)c1cnccn1` the same measures were -7.64%, -16.5%, -3.99%, -12.8% and -10.1%.
As to `CCCn1c(=O)c2ccc(Cl)cc2n2c(=O)n(CC(=O)Nc3ccccc3OC)nc12`, the activity change, negative = inhibition in assay [1] is -1.48%; in assay [2], 4.9%; in assay [3] it was 8.88%; in assay [4], -1.98%; in assay [5] it was 2.05%.
In the same order, the values of `COc1ccc(N2C(=O)c3cc4ccccc4n3CC2(C)C(=O)NC2CCCCC2)c(OC)c1` (stereo not given) are -6.98%, 1.64%, 6.76%, -22.9% and -0.82%.
In the same order, the values of `Cc1ccccc1NS(=O)(=O)c1cc2[nH]c(=O)[nH]c2cc1C` are -2.91%, 0%, -3.58%, -3.47% and -8.11%.

For the origin of these results see PubChem BioAssay AID1745853 (National Center for Advancing Translational Sciences (NCATS), 2022).
